{"source": "PubChem BioAssay (Tox21)", "note": "Inconclusive means that the source gave no clear call. Such entries were picked first, then a sample of the others. No potency is given beside an inconclusive call; the fits are too rough. Activity calls are given as the source filed them. Unless noted, calls come from the whole dose curve; as a rule, active = well fitted curve in the direction sought with a large enough effect in the repeat runs; inconclusive = weak or mixed curves; inactive = no such curve, though single readings can be large; an effect the other way counts as inactive or inconclusive. Bridge positions count the residues as written; N and C are the ends. Square brackets hold non-standard residues; d marks the D form. Peptide text beside a SMILES is read from it. * marks the point of attachment. X1 = CC[C@H](C)CCCCC(=O)*; Orn = NCCC[C@H](N)C(=O)O; Dab = NCC[C@H](N)C(=O)O; Mpa = O=C(O)CCS", "data": [{"biological_target": "Androgen receptor (Homo sapiens) (UniProt P10275)", "sequence (P10275 whole entry, looked up)": "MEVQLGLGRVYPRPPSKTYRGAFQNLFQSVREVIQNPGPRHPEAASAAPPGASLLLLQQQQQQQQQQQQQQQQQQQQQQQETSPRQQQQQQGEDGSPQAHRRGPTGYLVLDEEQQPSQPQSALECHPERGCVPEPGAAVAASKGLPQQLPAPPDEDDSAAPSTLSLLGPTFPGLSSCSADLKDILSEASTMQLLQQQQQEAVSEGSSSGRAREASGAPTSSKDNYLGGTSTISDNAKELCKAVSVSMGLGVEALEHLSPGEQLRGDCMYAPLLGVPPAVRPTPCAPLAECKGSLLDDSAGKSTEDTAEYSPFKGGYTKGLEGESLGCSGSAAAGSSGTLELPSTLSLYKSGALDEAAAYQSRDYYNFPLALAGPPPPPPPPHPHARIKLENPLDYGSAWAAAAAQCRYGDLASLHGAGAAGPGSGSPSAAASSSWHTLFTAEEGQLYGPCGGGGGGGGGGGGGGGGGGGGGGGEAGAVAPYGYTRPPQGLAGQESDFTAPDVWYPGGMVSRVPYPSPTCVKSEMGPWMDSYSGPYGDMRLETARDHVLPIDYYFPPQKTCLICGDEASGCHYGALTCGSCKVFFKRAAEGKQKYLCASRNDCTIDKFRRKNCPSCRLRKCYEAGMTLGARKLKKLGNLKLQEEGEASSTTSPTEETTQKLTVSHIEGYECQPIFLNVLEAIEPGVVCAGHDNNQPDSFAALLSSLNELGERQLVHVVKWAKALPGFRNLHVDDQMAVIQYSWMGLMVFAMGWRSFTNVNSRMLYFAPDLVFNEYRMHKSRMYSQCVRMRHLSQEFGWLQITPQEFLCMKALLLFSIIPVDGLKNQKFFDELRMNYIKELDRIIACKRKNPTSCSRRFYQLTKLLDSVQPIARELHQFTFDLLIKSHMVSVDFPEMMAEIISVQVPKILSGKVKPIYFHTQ", "test": "qHTS assay to identify small molecule agonists of the androgen receptor (AR) signaling pathway (AID 743036; active = well fitted activation curve with a large enough effect in the signal ratio in the repeat runs, with a control signal flat, not every such curve was filed as active; inconclusive = weak or mixed curves, or effect the other way; inactive = no such curve, though single readings can be large or run the other way; the % refers to the signal ratio; note: potency is the fitted concentration of half-maximal effect; tags give direction and shape of the fitted curve or compound fluorescence and quenching; for activation: % is set by controls: 0 for no effect and ±100 for the full control effect)", "conditions": "HEK293 AR-UAS-bla GripTite, beta-lactamase FRET ratio, 16 h; activation: at 62.4 µM (top of the series) unless noted", "how_it_was_run": "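Fluorescence from a beta-lactamase FRET substrate served as read-out in AR-UAS-bla GripTite HEK293 cells. Cells were treated with DMSO-dissolved compounds for 16 h at 37C, then with LiveBLAzer B/G substrate for 2 h at room temperature.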", "values": [{"smiles": "CCC(Cc1c(I)cc(I)c(O)c1I)C(=O)O", "note": "(stereo unspecified)", "Potency": "inactive"}, {"smiles": "CC#CCC(C)[C@H](O)/C=C/[C@@H]1[C@H]2c3cccc(CCCC(=O)O)c3O[C@H]2C[C@H]1O", "note": "(stereo partly specified)", "Potency": "inconclusive [fluorescent, partial curve]"}, {"smiles": "COc1cc(NCCCC(C)N)c2ncccc2c1", "note": "(stereo unspecified)", "activation": "inconclusive: 16.7%"}, {"smiles": "Nc1c(Br)cc(Br)cc1CNC1CCC(O)CC1", "note": "(stereo unspecified)", "Potency": "active: 4.77 µM"}, {"smiles": "CCOC(=O)c1cc(-c2ccccc2)nc2ccc(C)cc12", "activation": "inconclusive: -20.8%"}]}, {"test_system": "not listed separately", "test": "qHTS assay to identify small molecule antagonists of the androgen receptor (AR) signaling pathway using the MDA cell line - cell viability counter screen (AID 743041; note: nearly all actives have a fitted effect of over 45% in size; note: potency is the fitted concentration of half-maximal effect; tags give direction and shape of the fitted curve; for viability change, negative = cytotoxic: % is set by controls: 0 for no effect and ±100 for the full control effect)", "conditions": "MDA-kb2 viability, CellTiter-Fluor, 16 h, cells co-treated with R1881 androgen agonist; viability change, negative = cytotoxic: at 70.3 µM (top of the series)", "how_it_was_run": "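Compound exposure lasted 16 h at 37C in MDA-kb2 AR-luc cells stimulated with R1881. Protease-based CellTiter-Fluor reagent was applied for the final 30 min and fluorescence measured.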", "values": [{"smiles": "O=C(O)c1cc(=O)c2c3nc4ccccc4oc-3cc(=O)c2[nH]1", "Potency": "inconclusive [cytotoxic, partial curve, poor fit]"}, {"smiles": "CCCCCCCC[N+](C)(C)CCCCCCCC", "Potency": "inconclusive [cytotoxic, single point]"}, {"smiles": "C[C@H]1C[C@@H]2[C@H]([C@@H](O)C[C@@]3(C)[C@H]2CC[C@]3(O)C(=O)COC(=O)CCC(=O)O)[C@@]2(C)C=CC(=O)C=C12", "Potency": "inactive"}, {"smiles": "O=c1oc2cc(O)ccc2s1", "Potency": "inconclusive [cytotoxic, partial curve, poor fit]"}, {"smiles": "COC(=O)C1=C(C)NC(C)=C(C(=O)O[C@H]2CCN(Cc3ccccc3)C2)[C@H]1c1cccc([N+](=O)[O-])c1", "viability change, negative = cytotoxic": "inconclusive: -35.5% [cytotoxic]"}, {"smiles": "CC[C@H](C)CCCCC(=O)N[C@@H](CCN)C(=O)N[C@H](C(=O)N[C@@H](CCN)C(=O)N[C@H]1CCNC(=O)[C@H]([C@@H](C)O)NC(=O)[C@H](CCN)NC(=O)[C@H](CCN)NC(=O)[C@H](CC(C)C)NC(=O)[C@@H](CC(C)C)NC(=O)[C@H](CCN)NC1=O)[C@@H](C)O", "note": "(X1-[Dab]T[Dab][Dab][Dab][dL]L[Dab][Dab]T; lactam 4-C)", "Potency": "inactive"}]}, {"test_system": "not listed separately", "test": "qHTS assay to identify small molecule antagonists of the thyroid receptor (TR) signaling pathway - cell viability counter screen (AID 743064); note: nearly all actives have a fitted effect of over 50% in size; note: potency is the fitted concentration of half-maximal effect; tags give direction and shape of the fitted curve; for activity change, negative = cytotoxic: % is set by controls: 0 for no effect and ±100 for the full control effect", "conditions": "GH3.TRE-Luc viability, CellTiter-Fluor, 24 h; activity change, negative = cytotoxic: at 70.3 µM (top of the series) unless noted", "how_it_was_run": "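Fluorescence from CellTiter-Fluor, added after 23.5 h exposure at 37 °C, reported viability of GH3.TRE-Luc cells co-treated with compound and 1 nM T3. Measured in the same wells as the luciferase TR readout.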", "values": [{"smiles": "CC#CCC(C)[C@H](O)/C=C/[C@@H]1[C@H]2c3cccc(CCCC(=O)O)c3O[C@H]2C[C@H]1O", "note": "(stereo partly specified)", "Potency": "inconclusive [rising, partial curve]"}, {"smiles": "O=[N+]([O-])O[C@@H]1CO[C@H]2[C@@H]1OC[C@@H]2O", "activity change, negative = cytotoxic": "inconclusive: 31.2%"}, {"smiles": "O=C(O)c1cc(=O)c2c3nc4ccccc4oc-3cc(=O)c2[nH]1", "Potency": "inactive"}, {"smiles": "CCOc1ccc(C[C@H]2NC(=O)CCSSC[C@@H](C(=O)N3CCC[C@H]3C(=O)N[C@@H](CCCN)C(=O)NCC(N)=O)NC(=O)[C@H](CC(N)=O)NC(=O)[C@H]([C@@H](C)O)NC(=O)[C@H]([C@@H](C)CC)NC2=O)cc1", "note": "([Mpa][dY](Et)ITNCP[Orn]G-NH2; disulfide 1-6)", "Potency": "inactive"}, {"smiles": "O=C(CO)[C@@H](O)[C@H](O)[C@@H](O)C(=O)O", "Potency": "inactive"}, {"smiles": "Cc1cc(-n2c(=O)[nH]c(=O)n(C)c2=O)ccc1Oc1ccc(S(=O)(=O)C(F)(F)F)cc1", "Potency": "inconclusive [rising, partial curve, poor fit]"}, {"smiles": "C[C@H]1C[C@@H]2[C@H]([C@@H](O)C[C@@]3(C)[C@H]2CC[C@]3(O)C(=O)COC(=O)CCC(=O)O)[C@@]2(C)C=CC(=O)C=C12", "Potency": "inactive"}, {"smiles": "CCOC(=O)c1cc(-c2ccccc2)nc2ccc(C)cc12", "Potency": "inconclusive [cytotoxic, single point]"}, {"smiles": "C=CC[N@@+]12CC[C@@]34c5ccccc5N5/C=C6/[C@H]7C[C@H]8[C@@]9(CC[N@@+]8(CC=C)C/C7=C/CO)c7ccccc7N(/C=C(/[C@@H](C[C@@H]31)/C(=C\\CO)C2)[C@H]54)[C@@H]69", "Potency": "inconclusive [rising, partial curve, poor fit]"}, {"smiles": "CCCCC(=O)O[C@H]1CC[C@H]2[C@@H]3CCc4cc(O)ccc4[C@H]3CC[C@]12C", "Potency": "inconclusive [cytotoxic, single point]"}]}]}
